According to PubChem BioAssay AID720523 (National Center for Advancing Translational Sciences (NCATS), 2013):
The whole screen tested about 1,400 compounds, of which about 25 (2%) were called active. The shares of active, inactive and inconclusive entries below differ from those in the screen. Calls come from the whole dose curve; as a rule, active = well fitted inhibition curve with a large enough effect; inconclusive = small, poorly fitted or top-dose-only effect; inactive = flat fitted curve, though single readings scatter. A potency beside an inconclusive call is a rough fit, not a confirmed value.
% is set by controls: 0 for no effect and ±100 for the full control effect; potency is the fitted concentration of half-maximal effect; tags give direction and shape of the fitted curve.

Assay: Nrf2 qHTS screen for inhibitors: A549 ARE-Fluc Cytotoxicity Counterscreen for Hit Validation
Conditions: A549 ARE-Fluc cells; series mostly up to 46.1 µM; activity change, negative = cytotoxicity: at the top concentration
Outline: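 Cytotoxicity was measured by CellTiter Fluor fluorescence after A549 ARE-Fluc cells had been treated with compounds for 18-24 hours at 37°C. Fluorescence was read before luciferase detection, and results were normalized to plate controls.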
In the case of Cc1cccc(NC2=NC(C)(C)N=C(N)N2)c1, the “activity change, negative = cytotoxicity” value is reported as inactive: -5.78%. For CCc1ccccc1OCC(=O)Nc1nc(-c2cccnc2)cs1, the Potency was inconclusive: 6.51 µM [inhibitor, partial curve]. With Nc1ccc(-c2cc3ccccc3oc2=O)cc1 the “activity change, negative = cytotoxicity” value was inactive: -0.685%. In the case of CC[C@]12c3[nH]c4ccc(Cl)cc4c3CCN1C(=O)[C@@H](CC(=O)NC/C=C(\C)CCC=C(C)C)C[C@@H]2C(=O)N1CCN(C(=O)c2ccco2)CC1, the Potency is reported as inconclusive: 18.4 µM [inhibitor, single point]. With CCCCCCCn1c2c(c(=N)c3ccccc31)CCC2 the Potency was inconclusive: 23.1 µM [inhibitor, partial curve]. For CC[n+]1ccc(/C=C/c2c[nH]c3ccccc23)cc1, the Potency was inconclusive: 7.31 µM [inhibitor, partial curve]. In the case of COc1ccc(S(=O)(=O)N2CCN(CCOc3ccc(Br)cc3)CC2)cc1OC, the Potency is reported as inconclusive: 5.8 µM [inhibitor, full curve]. With NC(=O)c1ccc(NC(=O)C#Cc2ccccc2)cc1 the Potency was inconclusive: 10.3 µM [inhibitor, partial curve]. For COc1cccc(NC(=O)N(Cc2cn(C)c3ccccc23)C2CCCCC2)c1, the Potency was inconclusive: 29.1 µM [inhibitor, single point]. In the case of COc1ccc(CCNC(=O)COc2ccc(N(C)S(=O)(=O)c3ccc(Cl)cc3)cc2)cc1, the “activity change, negative = cytotoxicity” value is reported as inactive: -6.59%. With Cc1cc(C)nc(SCc2ccc(C(=O)NNC(=O)Nc3cccc(Cl)c3)cc2)n1 the Potency was inconclusive: 25.9 µM [inhibitor, single point]. With Fc1ccc(Nc2nc3nonc3nc2Nc2cccc(C(F)(F)F)c2)cc1 the Potency was active: 5.8 µM. With O=C1c2cccc3cc([N+](=O)[O-])cc(c23)C(=O)N1CCN1CCCC1 the Potency was inconclusive: 9.2 µM [inhibitor, partial curve]. With CC(=NNC(=S)N1CC2CCC(CC2)C1)c1ccncn1 the Potency was inconclusive: 2.59 µM [inhibitor, partial curve]. With CCCC(=O)NC(NC(=S)Nc1ccc(N=Nc2ccccc2)cc1)C(Cl)(Cl)Cl (stereo not drawn) the Potency was inconclusive: 16.4 µM [inhibitor, partial curve]. In the case of OCC[n+]1ccc(/C=C/c2c[nH]c3ccccc23)cc1, the Potency is reported as inconclusive: 20.6 µM [inhibitor, single point]. With CO[C@H]1/C=C/O[C@@]2(C)Oc3c(C)c(O)c4c(O)c(c(C=NN5CCN(C)CC5)c(O)c4c3C2=O)NC(=O)/C(C)=C\C=C\[C@H](C)[C@H](O)[C@@H](C)[C@@H](O)[C@@H](C)[C@H](OC(C)=O)[C@@H]1C the Potency was inconclusive: 18.4 µM [inhibitor, partial curve]. In the case of CN(C)c1ccc(/C=C/c2cc3ccccc3c[n+]2C)cc1, the Potency is reported as inconclusive: 14.6 µM [inhibitor, partial curve]. For COc1cc2c(NC3CCN(C(C)C)CC3)nc(N3CCCN(C)CC3)nc2cc1OCCCN(C)C, the Potency was inconclusive: 2.31 µM [inhibitor, partial curve]. With C[n+]1ccc(/C=C/c2c[nH]c3ccc(F)cc23)cc1 the Potency was inconclusive: 2.59 µM [inhibitor, full curve, poor fit]. For COc1ccc(N2CCN(c3ncnc4c3[nH]c3ccccc34)CC2)cc1, the “activity change, negative = cytotoxicity” value was inactive: -0.387%. With Cc1nc(CN(C)C(=O)c2cc(COc3ccc4ncccc4c3)on2)cs1 the “activity change, negative = cytotoxicity” value was inactive: -5.49%. For Cc1cc(=O)n(CC(=O)N2CCN(c3ccccc3F)CC2)c2c1c(C)nn2C, the “activity change, negative = cytotoxicity” value was inactive: -6.83%. In the case of COc1ccc2c(C(=O)NCc3ccc4c(c3)OCO4)c(-c3ccc(S(C)(=O)=O)cc3)sc2c1, the Potency is reported as inconclusive: 16.4 µM [inhibitor, single point]. For O=[N+]([O-])c1cc(Cl)cc2c1nc(NCCO)c1ccccc12, the Potency was inconclusive: 4.61 µM [inhibitor, partial curve]. In the case of O=C(Nc1cccc(Cl)c1)c1ccc(S(=O)(=O)NCC2CCCO2)cc1 (stereo not drawn), the “activity change, negative = cytotoxicity” value is reported as inactive: -3.19%. In the case of CC(C)CC[n+]1ccccc1/C=C/c1ccc(N(C)C)cc1, the Potency is reported as inconclusive: 11.6 µM [inhibitor, partial curve]. With Cc1cc(NC(=O)c2cc(-c3cccc(Cl)c3)on2)nn1Cc1ccc(Cl)cc1 the “activity change, negative = cytotoxicity” value was inactive: -14.1%. For O=C(Nc1ccc(S(=O)(=O)Nc2ccc(F)cc2)cc1)c1ccc(CN2CCOCC2)cc1, the “activity change, negative = cytotoxicity” value was inactive: -7.58%. With O=S(=O)(c1ccc(-c2csc(=Nc3ccc(OC(F)(F)Cl)cc3)n2CCCO)cc1)N1CCCC1 the Potency was inconclusive: 14.6 µM [inhibitor, partial curve]. With CCN(CC)c1ccc(/C=C/c2ccc3ccc(OC)cc3[n+]2CC)cc1 the Potency was inconclusive: 13 µM [inhibitor, partial curve]. With Cc1c(C(=O)N2CCN(Cc3ccc4c(c3)OCO4)CC2)sc2ncnc(N3CCN(c4ccccc4)CC3)c12 the “activity change, negative = cytotoxicity” value was inactive: -21.6%. For O[C@@H]1[C@@H](O)C=C2CCN3Cc4cc5c(cc4[C@H]1C23)OCO5 (stereo partly drawn), the Potency was inconclusive: 2.06 µM [inhibitor, full curve]. With CCC[n+]1c(/C=C/c2c(OC)cc(OC)cc2OC)ccc2ccccc21 the Potency was active: 7.31 µM. In the case of COc1ccc2c(/C=C/c3cc[n+](C)cc3)c[nH]c2c1, the Potency is reported as inconclusive: 5.8 µM [inhibitor, partial curve]. In the case of Cc1ccnc(NC(=O)CCCOc2cc(=O)n(C)c3ccccc23)c1, the Potency is reported as inconclusive: 3.26 µM [inhibitor, full curve, poor fit]. For COc1ccc2c(c1)/C(=C\c1cccc(/C=C3/C(=O)Nc4ccc(OC)cc43)n1)C(=O)N2, the “activity change, negative = cytotoxicity” value was inactive: -16.4%. For CN(C)c1cc[n+](CC(=O)Nc2ccc(Cl)c([N+](=O)[O-])c2)cc1, the “activity change, negative = cytotoxicity” value was inactive: -5.2%. In the case of Cc1ccccc1SCC(=O)N1CCN(c2ccc(C(F)(F)F)cn2)CC1, the “activity change, negative = cytotoxicity” value is reported as inactive: -4.41%. For O=C(Nc1ccccc1F)Nc1ccccc1N1CCCCC1, the “activity change, negative = cytotoxicity” value was inactive: -2.21%. With COc1cccc2c1C(=O)c1c(O)c3c(c(O)c1C2=O)CC(O)(C(=O)CO)CC3OC1CC(N(C)C)C(O)C(C)O1 (stereo not drawn) the Potency was inconclusive: 7.31 µM [inhibitor, partial curve]. With Cn1c(=O)c2c(nc(SCC(=O)Nc3ccc(OC(F)(F)F)cc3)n2Cc2cccc(C(F)(F)F)c2)n(C)c1=O the Potency was inconclusive: 16.4 µM [inhibitor, partial curve]. In the case of CCC(CC)C(=O)Nc1ccc(Sc2ccc([N+](=O)[O-])cc2)cc1, the “activity change, negative = cytotoxicity” value is reported as inactive: -10.4%. For CC1CCc2c(sc(NC(=O)/C=C/c3cccs3)c2C(=O)O)C1 (stereo not drawn), the Potency was inconclusive: 7.31 µM [inhibitor, partial curve]. With COc1cc(C2CC(=O)c3c([nH]c(C(=O)OCc4ccc(C)cc4)c3C)C2)cc(OC)c1OC (stereo not drawn) the “activity change, negative = cytotoxicity” value was inactive: -2.94%. In the case of COc1ccc(-c2csc(NC(=O)c3ccccc3NS(=O)(=O)c3ccc(F)c(F)c3)n2)cc1, the Potency is reported as inconclusive: 7.31 µM [inhibitor, partial curve]. With Cc1ccc2c(c1)c(/C=C/c1cc[n+](C)cc1)c(C)n2C the Potency was inconclusive: 14.6 µM [inhibitor, partial curve]. In the case of Cc1ccccc1NC(=O)c1cccc2nc3ccccc3nc12, the Potency is reported as inconclusive: 11.6 µM [inhibitor, partial curve]. In the case of CC(=O)c1c(C)n(CC(=O)NCc2ccc3c(c2)OCO3)c2ccccc12, the “activity change, negative = cytotoxicity” value is reported as inactive: 10.8%. With Cc1cc(C)n(S(=O)(=O)/C=C/c2ccccc2)n1 the “activity change, negative = cytotoxicity” value was inactive: -15.3%. With O=C1Cc2c([nH]c3ccc([N+](=O)[O-])cc23)-c2ccccc2N1 the Potency was inconclusive: 2.31 µM [inhibitor, full curve, poor fit]. In the case of CN(C)c1ccc(/C=C/c2cccc3cc4ccccc4nc23)cc1, the Potency is reported as inconclusive: 4.61 µM [inhibitor, partial curve]. In the case of O=C(Nc1ccc2c(c1)OCCO2)c1cccc2nc3ccccc3nc12, the Potency is reported as active: 11.6 µM. For CN(CCOc1ccc(Cl)cc1)C(=O)c1cccc(S(=O)(=O)N2CCN(c3ccc(F)cc3)CC2)c1, the “activity change, negative = cytotoxicity” value was inactive: -14.7%. In the case of O=C(N/N=C(\c1ccccc1)c1cccnc1)c1cccc(F)c1, the Potency is reported as inconclusive: 0.651 µM [inhibitor, full curve, poor fit]. With Cc1ccc(NC(=O)COc2ccc(N(C)C(=O)C(C)(C)C)cc2)cc1S(=O)(=O)N1CCCCC1 the Potency was inconclusive: 13 µM [inhibitor, partial curve]. In the case of O=C(CSc1nnc(-c2cccnc2)s1)Nc1ccnc2ccccc12, the “activity change, negative = cytotoxicity” value is reported as inactive: -10.5%. In the case of CSCCC(NC(=O)CCC(=O)OCC(=O)[C@@]1(O)CCC2[C@@H]3CCC4=CC(=O)C=C[C@]4(C)C3[C@@H](O)C[C@@]21C)C(=O)O (stereo partly drawn), the “activity change, negative = cytotoxicity” value is reported as inactive: -6.36%. In the case of O=C(CCCc1nc(-c2ccc(Cl)cc2)no1)NC1CCCC1, the “activity change, negative = cytotoxicity” value is reported as inactive: -3.57%. With COc1cc(/C=C(/C#N)c2ccc(C)cc2)ccc1Oc1ccc([N+](=O)[O-])cn1 the “activity change, negative = cytotoxicity” value was inactive: 3.37%. For COCCNC(=O)C1CCN(C(=O)c2cc3sccc3n2Cc2ccc(Cl)cc2)CC1, the “activity change, negative = cytotoxicity” value was inactive: -23.6%. With COc1ccc(OCC(O)Cn2c(NCCO)nc3c2c(=O)n(C)c(=O)n3C)cc1 (stereo not drawn) the “activity change, negative = cytotoxicity” value was inactive: -2.78%. In the case of Cc1ccc(C)c(NC(=S)NC(NC(=O)/C=C/c2ccccc2)C(Cl)(Cl)Cl)c1 (stereo not drawn), the Potency is reported as inconclusive: 0.731 µM [inhibitor, full curve]. With COc1ccc(CCN(C)C(=O)Cc2ccc(-c3ccccc3)cc2)cc1OC the “activity change, negative = cytotoxicity” value was inactive: -2.22%. With Cc1ccc(-c2onc(C)c2C)cc1S(=O)(=O)N1c2ccccc2CC1C (stereo not drawn) the “activity change, negative = cytotoxicity” value was inactive: -6.64%. In the case of COc1ccc(/C=C/c2cc(-c3ccc(C)cc3)o[n+]2C)cc1, the Potency is reported as inconclusive: 9.2 µM [inhibitor, partial curve]. With O=C(NC(NC(=S)Nc1c(Cl)cc(Cl)cc1Cl)C(Cl)(Cl)Cl)OCc1ccccc1 (stereo not drawn) the Potency was inconclusive: 29.1 µM [inhibitor, single point]. For COc1cccc(CN(C)C(=O)c2cccc(S(=O)(=O)NCc3ccccc3)c2)c1OC, the “activity change, negative = cytotoxicity” value was inactive: -3.03%.
